According to the RNAGym collection of RNA variant scans (doi:10.7554/elife.90254):
The source gives no read counts; variants with many changes may rest on few reads.

B1: LINE1-mini (parent)
chain: GGCAGAGCUCAACACAGCGUGGCAAAGUGGCUGUGGCUAGACUGCC

Variants of: B1
Assay: self-cleavage, relative activity (ratio to wild type); higher = more cleavage; in vitro, sequencing; the parent is a self-cleaving ribozyme

Variant	self-cleavage
A11C C15G A25G C31A G40A	0
C8A A26C U43G	0.02
C13G C15U G36A A39C	0.08
A6U G22A G27U G30U G35U G44C	0.12
U9C U20G A26C	0.02
G5U U9A U32A	0.08
A12U C18A U34A G36U	0.03
G2A C13U G35A U38A	0.89
A4G G5U A14C C31U G35C	0.04
A4C A12C G21A U38A A41U C42G U43A	0
G1C C15G A24G G29U C42U G44U	0
C8U C10G U20A G30A C45A	0
A16U A26G G40C	0.03
G2C A6U G21U A25U G29A	0.36
G2U C3A G21A A25G C37U	0.59
C3A G22U C37U	0.12
G1U A4C A6U A24U	0.07
U9C G33U U43A C46U	0.02
A6U C8A A24U G29U	0.58
G5A U9A G29C G36A	0.15
G29U U32A A39U	0.08

Variant	self-cleavage
A24G C31A A39U G44A	0.02
G21A G35U G36C	0.18
C10G G21U C23U C45A	0.06
A6U A12U A16U C18G C23A	0.07
U20G U43A C45A C46U	0
G5A G30U U34A C37G G44C	0.01
C13U C18A G30U	0.17
G1U C8G C10A C18A G35U	0.01
C15U U32A G40A C42A	0.06
C10A A14U C23U C37G	0.02
A11C A12U A25C G29C G30A C46U	0.04
A26G G29A U32G	0.03
C3G A24G G30U U32C G40U	0.14
G7A C10G C37U A39U	0.01
C8A A11G C15A C37U	0.05
G1C A12C G30A G33U G40U	0.03
U9A G21U A25U G35C C37U	0.13
G2A G7C A11G G21A A41G	0.02
C8G A26C G35C	0
G5U C18U G19A G27A	0.1
G1U U9C U28A	0.02

Variant	self-cleavage
G21U U32G G44A	0.13
A14U G27C U32A C46U	0.02
C8A G17A C37G	0.07
C3G C8A G22U	1
C3U A12U G21C G36C G40A	0.09
G17C G30U G36A	0.05
C8A G30C U32G G35A	0.04
G7C C18U G36U C46A	0.1
G22A G27U G29U C31U C45G	0.76
A4C G17U U28G G30U G33U	0.06
G1U A14U U43A	0.02
A4G A14G C31U	0.04
G40U C42G G44U	0.09
A12C G22A A41C C45G	0
A11U C13G G29C U34A	0.01
C3G A24C G30A G36U	0.05
U34A C37U C42G	0.03
G1A A4C G21U A24C U28A G29U	0.02
G19U G29U G35U U38G	0.04
A14G A16G G17C C18U G19A A26G U28C G40U	0.01
G2C G7U C10A	0.05

Variant	self-cleavage
C15U G21U C37U U38A	0.03
C31A U32A C46U	0.02
U9A A11U G22U A41C	0.01
G2A G17C G21C C23U A26C	0.69
U9A A11C C13U A26C	0.01
G19U G30C G44U	0.05
C10A A14G C45U	0.01
C13U G21C A25C G27U	0.04
G2U U9G G35U C46A	0.01
C8G A11U C18U	0.02
G2C A14C U43G	0.01
C3G C13A G19C G35A C45A	0.09
G2C C18A C31U	0.05
U9A G29A G36U	0.26
C13A A16U G19A G21C C45A C46G	0.02
C3G C15A A26C G27A G33U	0.43
G5A C13A G29U	0.15
G1A C10A G17A A26C G35U	0.15
G2C U9C A14C G19A	0.02
A12C G17U C23U C45G	0.04
